# Source: the supplement of paper PMC11417369
# Some of the results follow.
# Test system: PF3D7_0420300 AP2 domain 1 (GST-tagged)
# Experiment: gcPBM binding intensity (ln(normalized median fluorescence intensity)); higher = stronger DNA binding
# Summary of the method: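 Binding intensity is defined as the maximum Masliner-normalised natural-log median intensity across replicate spots for either probe orientation. It was measured on an Agilent 4 × 180k array of primer-extended double-stranded 36-bp intergenic genomic probes and negative controls, to which GST-tagged P. falciparum DNA-binding domains made in E. coli were applied for 1 h in 1× PBS with 1% milk, 0.2 mg/ml BSA, 0.5% salmon testes DNA and 0.03% Triton X-100. Detection was by Alexa488 anti-GST antibody and scanning at 488 nm.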
row,Sequence,gcPBM binding intensity (ln)
1,GTTCATAAATTAAACACACACACACCCCTGGATACC [CACACA_site3331],10.2
2,TAATTAATTTATTAGTTGCACTGTACCATTAGAGTA,8.98
3,TTTTTCAGAAAAGAAACACACATATTTATATTTATA [CACACA_site7167],9.07
4,TATATGTATATATATTAACACACAAAAAAAAAAAAA [CACACA_site8534],9.4
5,TAAACAAATAAATAAACACACAATATCTGTATTTAT [CACACA_site5978],9.5
6,TTAAAATAAAGTAGTGGTACAAAAAAAAAAAAAAAA [XGTACX_site6322],9
7,ATTAAATCGATATATACACACATGTTTGGTATATTC [CACACA_site7285],9.53
8,TAACCTATAATATTCACACACATATAAATATTATAG [CACACA_site6592],9.46
9,AGTAATAGTTTGTGCACACTCAAGTATATCATATAT [CACACA_site4034],9.62
10,TTTTACTTAAAACACACACACACAAAAAAAAAAAAA [CACACA_site947],9.96
11,AAAAAAAATATAATATGTACATATCTATATATCAAC [XGTACX_site4881],9.38
12,TATACATATGAAAATACACACATACATACAGATATA [CACACA_site5002],9.82
13,TTGTTTTTAATATCGGTGCAATGGAAAGAAAAGAAG [GTGCAC_site9494],9.22
14,AAAAATAATCATTAGGTGCAAAAAATATATATATAT [GTGCAC_site9631],9.52
15,TACGTAAAATAATTGAGTACATAATTATATATATAT [XGTACX_site5361],9.29
16,AGAAAAATTATTTTGCGTACATATTTACAATAAAAA [XGTACX_site2144],9.02
17,AACAAATATATATGTAGTACATGTTGTAGATAATTT [XGTACX_site24],9.42
18,TTTTTTTTTTTAAATTCACACAATATATAAATATTG [CACACA_site5201],9.01
19,TAAAGCATATTATAAACACACACTGTATAAAGATAT [CACACA_site296],9.7
20,GTACATTATTTATATACACACAAAGAAAAATATACA [CACACA_site3452],9.69
21,TTTAAAATATATAGTACACACGTGAACACAAATACA [CACACA_site4392],9.54
22,GAATACATAATAACATGTACACACATTCTTCTATAA [XGTACX_site8725],9.49
23,TATATATATAGAAATGCATGTTAATAAAAGTTATAA [TGCATGCA_site947],9.21

row,Sequence,gcPBM binding intensity (ln)
1,TATCATAAAAAATATACACACAAAGGATATTTATAT [CACACA_site6841],9.64
2,TATGAACACCAACACACACACAAAAAAAAAAAAAAA [CACACA_site2013],9.61
3,AGATAAAAAAAGTACACACACACATATATTTATATA [CACACA_site7437],10.1
4,TTTTTTATTTTAAAAACATGCATAAAATATAATAGT [TGCATGCA_site762],9.05
5,TATATATTTAATTTCACACATATATATAATTATTAT [CACACA_site4936],9.37
6,ATATTATATATAAAATGTACATTTAAAAATATTATA [XGTACX_site889],9.09
7,ATACACACTTAAAAAAGTACTTAACTACATGAATTG [XGTACX_site1203],9.36
8,TTTTTTATTTTGTGCACACACATAAAAATATATATA [CACACA_site761],9.5
9,TTTTTTTTTTTTTAAACATGCATAATAAATATAATA [TGCATGCA_site265],8.88
10,TATTTATTTATGGACACACATACAAATCTTCCAGAC [CACACA_site942],9.55
11,TAATCATAACTTGATACGCACACGTTATATAAATAA [CACACA_site1579],9.02
12,TTGTTTTCTTATTATTACTACAATACTTAAGTCAGA [TGCATGCA_negctrl_site184],9.1
13,TTTTGTTGGATACAAAAATTACAAATTATTTAAAAA [TGCATGCA_negctrl_site532],8.79
14,ATTCTTATAACAAGAAGTACAAATATATGTATATAT [XGTACX_site4528],9.1
15,TTTTTTTTTAAGATGAAGATCAATATATAAATATAT [CACACA_negctrl_site1538],8.69
16,AGAATATCAAAATAAAGTACATTTATTATATATATG [XGTACX_site7100],9.25
17,TTTTCTCTCAAAAAATGTACATAATATATATATTTT [XGTACX_site4861],9.03
18,AAAAAAAAAAAACATACACACATACATACCTATATA [CACACA_site6575],9.78
19,AACATCAATTTATTTTCTTACATTATACGATTCATG [CACACA_negctrl_site1300],9.17
20,AAAAAAAAATCAAAATGTACTTATTTTTATAATAAT [XGTACX_site4712],9.07
21,TAATTATGCCAACACACACACACACCCAACTAAAAA [CACACA_site8823],10.2
22,ATGATGTGCAAGAGTAGTACACAATTTTGGGTTTAT [XGTACX_site501],9.25
23,AAACATAAGAAACACACACACATATATATATATATA [CACACA_site3642],9.65

row,Sequence,gcPBM binding intensity (ln)
1,CCTTTTTTGTTTTATGCACACCATATAACCAAGGCT [CACACA_site7893],9.3
2,TAAATGTCCTTATTTGCACACACACCCATAAGAAAT [CACACA_site3185],9.83
3,ATGTAATGAAACATTGCACACATATAATAATATAAT [CACACA_site8402],9.54
4,TATATATAAAAATATACACACACAAATGTATATATA [CACACA_site7956],9.54
5,TTTTTATATGCGTATTGTACATTATACATATATATA [XGTACX_site6786],9.23
6,CGTATATATAAATACACACACATATATATCTGTAAA [CACACA_site4272],9.66
7,TTAATTTATTTATGCACACATATATAATTACCCATA [CACACA_site682],9.33
8,AATTAAATTACTTATACACACATAAAATGGGTGTAT [CACACA_site4703],9.35
9,AAAAAAAAAAAAAAGCGTACAAATAAAATATATTTA [XGTACX_site7195],9.28
10,TCTTTCAATATTAATGCATGTTAATAATAAATTTTA [TGCATGCA_site448],8.87
11,ATATGTTTTTTTTTTTTTTTTTAATTTGTCATAAAT [CACACA_negctrl_site1208],9.28
12,TGAACAATATATAATAGTACATATTTATTTTTTTCT [XGTACX_site4256],9.13
13,TAAAGATGAAATATCACACATATATAAATATATAAA [CACACA_site4580],9.24
14,ATATAAATAAATATATGTACACACACAAATATATAC [XGTACX_site3950],9.91
15,TCTTTCTTATTTTAATGATATTTATTCATTCCAGTT [CACACA_negctrl_site1679],9.28
16,AGAATTATTCTAAAAACACACAATACAAAAGTGCAT [CACACA_site3004],9.53
17,ACTTTTACACTTTGATTGCACTACTAAACCAGTTCA,9.4
18,AATACTAAAACCCATACACACACATATATATAGTAC [CACACA_site9041],10.1
19,AAAAAACACGCGCACACACACACACGCGCCCACATA [CACACA_site7106],10.3
20,ATAAAAAAAAATATTTGTACACATATTTATATATTA [XGTACX_site8147],9.08
21,AATATTTTTTTTTAAACATGCATATTTGCATTACCC [TGCATGCA_site437],8.98
22,TTTACATTTATGTGCACACATTCCATTTGAAAGTAA [CACACA_site1953],9.28
23,CTTATAAAAAAAATTGCACACATATTATACAGGACG [CACACA_site8133],9.73

row,Sequence,gcPBM binding intensity (ln)
1,ATAACTTTCTATACATGTACACATATATGGTATTTT [XGTACX_site7535],9.57
2,ATAAATTTTTTATGAACACACAAATACACCCACTCA [CACACA_site5465],9.73
3,TGTATATATTTTAATAGTACTCATATATATATATAT [XGTACX_site7216],9.23
4,ATTGTGTTGACGGGTGACCCTTCCAGAGAAATAGAA [CACACA_negctrl_site1362],9.01
5,TTTTTTTTAATGAGAAGTACGGTCTTTCAATGTCTT [XGTACX_site6773],8.89
6,TAAAAATTAAAACTGGGTACAAATTTATAGATAGCC [XGTACX_site8075],9.62
7,CATTAACAAATAAATGCACACATATATATAAATAAT [CACACA_site7892],9.56
8,AATTTATTAGATAGATGTACATTTTAATAAAAGTAG [XGTACX_site6819],9.13
9,TCCCCTTAATTTAAAACACACAAACAAATAAGTTAG [CACACA_site5973],9.27
10,ATTAATTATATATATACACACACATACACCCAAATA [CACACA_site9126],10
11,TAAATACTTCGTAAAACACACAAGTAGAAAAAAAAA [CACACA_site360],9.42
12,ATAATTAGTTCAATTTTTTTTTTTTTTTTTTTTTTT [CACACA_negctrl_site1371],9.06
13,AAAAATATAATATATGCACACATACATACATATATA [CACACA_site7915],9.37
14,TTATTTATTTATTGTTGTACACAAAATGATTCTTAA [XGTACX_site6480],9.02
15,AAACAAAACAAAACATGTACACATTATATATATATA [XGTACX_site3374],9.41
16,TAATAATTACAAAGAAGTACATAAAAAAAAATTTAT [XGTACX_site4684],9.22
17,CTATATATATATTTCAGTACATATTAAGAATATATA [XGTACX_site4860],9.04
18,TTCTAATAAATGTGTTGTACACCTTTAGCAACTATT [XGTACX_site3235],9.2
19,TATATAAATATATACACACATACATACATACATATA [CACACA_site3835],9.74
20,TATATATATTTATGCACACAAAATATATTATATAAT [CACACA_site5955],9.27
